# Laboratory results as given in the supplement of paper PMC11348887.
# Where a name gives a salt, the structure may show the parent alone. This is one part of the list. No stated cut-off is given here; in the data, active = -2 or less and inactive = the rest. Single values are uncertain, as repeats are few or missing.
# System: hPSC-derived cortical neurons (WA09)
# Assay: nuclei number (viability) z-score; higher = more surviving cells
# Conditions: 5 µM; treatment: days 7-14 after plating, readout day 21
# 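Further: nuclei counted from DAPI counterstain by automated high-content image analysis, four fields per well at ×20 in 384-well plates, with sequential b-score then z-score normalization.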
row,SMILES,nuclei number (z-score)
1,O=C(O)CCC(=O)Nc1ccc(Br)cn1 [Bikinin],inactive: 0.462
2,COc1ccc(C(=O)Nc2sc3c(c2C(N)=O)CCCC3)cc1OC,inactive: 8.79
3,CC(=O)N[C@@H](CCC(N)=O)C(=O)O [Aceglutamide],inactive: 0.97
4,CCC[C@H](Nc1nc(-c2ccc(NC(=O)NCC)c(OC)c2)ncc1C)c1cccnc1 [CYT997 (Lexibulin)],active: -8.36
5,COc1cc2ncc(-c3ccccc3)nc2cc1OC [Tyrphostin AG 1296],inactive: 0.649
6,Cc1[nH]c(=O)c(C#N)cc1-c1ccncc1 [Milrinone],inactive: 0.414
7,CC(C)[C@H](CO)Nc1nc(Nc2cccc(Cl)c2)c2ncn(C(C)C)c2n1 [Purvalanol A],inactive: 0.313
8,Cc1ccnc2c1NC(=O)c1cccnc1N2C1CC1 [Nevirapine],inactive: 4.24
9,CN(C)CCC=C1c2ccccc2CCc2ccccc21 [Amitriptyline HCl],inactive: -0.237
10,CC(=O)c1cc([N+](=O)[O-])c(Sc2cccc(Cl)c2Cl)s1,inactive: 3.58
11,Cn1c(=O)c2[nH]cnc2n(C)c1=O [Aminophylline],inactive: 0.494
12,CS(=O)(=O)c1ccc(C2=C(c3ccccc3)C(=O)OC2)cc1 [Rofecoxib],inactive: 0.854
13,FC(F)(F)c1ccc(CNc2ccc(Cc3c[nH]c4ncc(Cl)cc34)cn2)cn1 [Pexidartinib (PLX3397)],inactive: 0.0889
14,O=C(Nc1ccccc1)c1ccccc1O [Salicylanilide],inactive: 0.461
15,Cc1ncc([N+](=O)[O-])n1CC(O)CCl (stereo not drawn) [Ornidazole],inactive: 0.0754
16,CN1C(C(=O)Nc2ccccn2)=C(O)c2sccc2S1(=O)=O [Tenoxicam],inactive: 2.51
17,N#Cc1ccc2[nH]cc(CCCCN3CCN(c4ccc5oc(C(N)=O)cc5c4)CC3)c2c1 [Vilazodone HCl],inactive: -0.0916
18,CN(C)c1ccc2nc3ccc(=[N+](C)C)cc-3sc2c1 [Methylene Blue],active: -6.32
19,COc1cc(/C=C/C(=O)N2CCC=CC2=O)cc(OC)c1OC [Piperlongumine],active: -2.94
20,Cc1cccc(C)c1NC(=O)C1CCCCN1C (stereo not drawn) [Mepivacaine HCl],inactive: -0.638
21,CCc1nc(-c2cccc(C)c2)c(-c2ccnc(NC(=O)c3ccccc3)c2)s1,inactive: 1.15
22,Cc1c(C(N)=O)cc([N+](=O)[O-])cc1[N+](=O)[O-] [Dinitolmide],inactive: 1.29
23,N=C(N)N [Guanidine HCl],inactive: 1.07
